# Assay results taken from article PMC4336329 (PLoS ONE, 2015).
# The campaign covered roughly 310,000 compounds. About 2,200 (0.71%) showed an effect of 50% or more. The effect is printed as a negative number. The list shows a part of the results.
# Target: human ether-à-go-go-related gene (hERG) potassium channel (human, UniProt Q12809)
# Assay: primary screen, population patch clamp on CHO cells stably expressing hERG
# Sequence of human ether-à-go-go-related gene (hERG) potassium channel (Q12809 whole entry, looked up): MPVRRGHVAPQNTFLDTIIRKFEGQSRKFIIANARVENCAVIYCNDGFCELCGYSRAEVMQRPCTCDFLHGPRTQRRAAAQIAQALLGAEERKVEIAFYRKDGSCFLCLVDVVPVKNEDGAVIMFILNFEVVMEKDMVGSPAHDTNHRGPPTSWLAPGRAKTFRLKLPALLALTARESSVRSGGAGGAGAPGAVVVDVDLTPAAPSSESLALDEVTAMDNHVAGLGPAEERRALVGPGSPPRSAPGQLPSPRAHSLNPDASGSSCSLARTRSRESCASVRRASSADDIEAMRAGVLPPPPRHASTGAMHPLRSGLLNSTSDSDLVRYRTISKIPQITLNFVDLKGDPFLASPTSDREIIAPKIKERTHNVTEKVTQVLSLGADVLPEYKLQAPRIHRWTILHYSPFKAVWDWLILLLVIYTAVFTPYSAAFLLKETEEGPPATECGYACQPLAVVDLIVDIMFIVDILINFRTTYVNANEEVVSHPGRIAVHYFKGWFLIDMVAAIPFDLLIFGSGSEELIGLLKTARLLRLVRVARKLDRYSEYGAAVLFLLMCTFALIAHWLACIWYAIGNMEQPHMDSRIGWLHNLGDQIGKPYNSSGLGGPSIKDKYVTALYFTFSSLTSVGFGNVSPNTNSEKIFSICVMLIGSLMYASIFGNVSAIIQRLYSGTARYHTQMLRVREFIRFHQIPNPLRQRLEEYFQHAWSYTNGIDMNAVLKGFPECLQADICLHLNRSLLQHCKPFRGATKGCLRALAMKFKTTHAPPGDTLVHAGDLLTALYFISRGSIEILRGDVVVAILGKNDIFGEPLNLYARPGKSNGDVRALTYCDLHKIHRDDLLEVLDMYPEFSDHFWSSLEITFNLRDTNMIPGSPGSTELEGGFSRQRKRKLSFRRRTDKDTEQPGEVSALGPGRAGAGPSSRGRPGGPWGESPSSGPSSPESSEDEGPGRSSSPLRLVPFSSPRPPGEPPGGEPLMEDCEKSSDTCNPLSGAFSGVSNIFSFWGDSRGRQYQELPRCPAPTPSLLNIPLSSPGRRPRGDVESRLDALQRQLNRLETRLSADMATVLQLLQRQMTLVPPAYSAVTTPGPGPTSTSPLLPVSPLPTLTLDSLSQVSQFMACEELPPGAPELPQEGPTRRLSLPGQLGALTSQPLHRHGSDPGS
row,Compound,"hERG current change (%, negative = inhibition) at 1uM [%]"
1,Clc1cccc(Cl)c1-c1noc(CN2CCOCC2)n1,12.6
2,Fc1ccccc1CSc1nc2ccccc2[nH]1,0.961
3,Cc1nn2cc(-c3ccccc3)nc2[nH]c1=O,24.2
4,COc1ccc(C2CC(=O)C3=C(C2)Nc2ccccc2N(C(=O)C2CC2)C3c2cccnc2)cc1OC (centres unmarked),6.25
5,CCn1cc(CN2CCCC(C(=O)Nc3ccc(-c4nc5ccccc5[nH]4)cc3)C2)c(C)n1 (centres unmarked),0.0718
6,CCOC(=O)N1CCN(Cc2nc3ccc([N+](=O)[O-])cc3c(=O)n2-c2ccc(OC)cc2OC)CC1,-0.993
7,CS(=O)(=O)N1CCN(c2ccccc2NC(=O)c2cccnc2)CC1,-3.63
8,COC(=O)CCC(=O)NC(=S)Nc1c(C)cccc1C,6.22
9,Cc1ccc(CN2C(=O)C(C)(C)Oc3ccc(C(=O)N4CCCCC4)cc32)cc1,7.02
10,COc1ccc(CSc2nc3nc(C)cc(C)n3n2)cc1F,4.03
11,CC1CCCCC1NC(=O)CSc1nnc(CNC(=O)c2ccccc2)n1C (centres unmarked),10.8
12,O=C(NC(=S)Nc1ccc(S(=O)(=O)N2CCCC2)cc1)C1CCC1,11.8
13,Cc1ccc(C(=O)NCC(=O)NCC(=O)OCC(=O)c2cccs2)cc1,7.78
14,CN1CCCCCC1=Nc1ccc([N+](=O)[O-])cc1.Cl,4.34
15,Cc1ccccc1SCC(=O)N1CCN(c2ccc(C(F)(F)F)cn2)CC1,-13.3
16,COCCCNCCCCOc1ccc(C)cc1[N+](=O)[O-].O=C(O)C(=O)O,-4.56
17,CCCCOC(=O)C(C#N)c1nc2ccccc2nc1N1CCN(Cc2ccc3c(c2)OCO3)CC1 (centres unmarked),12.4
18,Br.Cc1csc(=Nc2ccccc2)n1C,10.1
19,CS(=O)(=O)c1ccccc1C(=O)N(CCc1ccccc1)Cc1ccccc1,9.2
20,O=C(N1CCOCC1)N1CCN(S(=O)(=O)c2ccc(Cl)cc2)C1,18.2
21,CN(C)c1ccc(/C=N/NC(=O)CNC(=O)c2ccncc2)cc1,12.7
22,O=C(O)C1CCN1C1CCCCC1 (centres unmarked),11.3

row,Compound,"hERG current change (%, negative = inhibition) at 1uM [%]"
1,O=C(O)CC(C(=O)Nc1ccc(Cl)c(Cl)c1)C1CCCO1 (centres unmarked),4.45
2,CCCNC(=O)c1nc(C)c(C)nc1C(=O)Nc1cccc(Cl)c1,4.07
3,O=Cc1ccc(OC(=O)c2cc(Cl)nc3ccccc23)cc1,13.5
4,O=C(COC(=O)c1ccccc1O)Nc1cccc2ccccc12,2.17
5,CC(C)(Cc1ccc(O)cc1)NC(=O)SCc1ccccc1,6.63
6,CC(=O)c1ccc(N/C=C/C(=O)c2ccc(Br)cc2)cc1,14.3
7,O=S(=O)(O)c1nc2ccccc2n1Cc1ccc(Cl)cc1Cl,7.15
8,O=C(OC1CCOC1=O)C1CCN(S(=O)(=O)c2ccccc2)CC1 (centres unmarked),8.34
9,CN1C[C@@H]2C[C@@H](c3ccc(C#CC(C)(C)O)s3)N3CCC[C@@]23C1=O,13.8
10,Cc1cccc(NC(=O)CCNC(=O)c2ccco2)c1,14.5
11,COc1ccc2c(c1)sc(N)[n+]2Cc1cc(C)cc2cccnc12.[Br-],-26.5
12,CCOc1ccc(NC(=O)N2CCC(c3nc4ccccc4[nH]3)CC2)cc1,-5.11
13,O=C(CN1CCN(S(=O)(=O)c2ccccc2[N+](=O)[O-])CC1)NC(=O)NCc1ccco1,17.9
14,CCOC(=O)CSc1nc(C(C)C)nc2ccccc12,5.05
15,CCCC(=O)Nc1nnc(/C=C/c2ccccc2)s1,10.1
16,CCOC(=O)c1c(NC(C)=O)no[n+]1[O-],4.59
17,Cc1ccc2nsnc2c1S(=O)(=O)N1CCCC1C(=O)O (centres unmarked),18.9
18,Cc1cc(Nc2ccc(C)c(F)c2)n2ncnc2n1,23.4
19,CCN(CC(=O)Nc1cccc(S(N)(=O)=O)c1)Cc1nc2ccccc2c(=O)[nH]1,3.68
20,COc1cc(C(=O)Nc2ccc(NC(=O)c3ccccc3)nc2)cc(OC)c1OC,13
21,O=C(Nc1ccc2c(c1)OCO2)C1CC(c2c(F)cccc2Cl)=NO1 (centres unmarked),11.7
22,O=C1CC(c2ccccc2)CC(O)=C1C=NCCN1CCN(C(=S)Nc2cccc(Cl)c2)CC1 (centres unmarked),2.31
